The RNAGym collection of RNA variant scans (doi:10.7554/elife.90254)
Read counts are not given, so values of variants with three or more changes are uncertain.

B1: LINE1-mini (parent)
chain: GGCAGAGCUCAACACAGCGUGGCAAAGUGGCUGUGGCUAGACUGCC

Variants of: B1
Test: self-cleavage, relative activity (ratio to wild type); higher = more cleavage; in vitro, sequencing; the parent is a self-cleaving ribozyme

Variant	self-cleavage
G7C G19C U43A G44C	0.03
G1C G7U C18A G35C C37A	0.01
A11G C15U G17C C18G G35C C37A	0
G1U G2U A6U G36A U38C A39C	0.06
C15U A25U G33C C37G C42A	0.1
A4G G5U A41G	0.05
C8A C23A G40U C46A	0.15
C15G G17A G19C G22A C45A	0.02
C3U G29C G30A G36U	0.45
C3G G19U C31G	0.05
C31A U43C G44U	0.03
G1U G7A G40C U43C	0.01
C8G A14U A26C	0.03
G1C C3U G5A A11C A26G	0.04
C10A C13A A25G U34A	0.01
G2A C8A G21U C31U	0.31
G2U A16U G19U A39U	0.02
A12C A41C C45A	0.01
G17A A25C G40U	0.09
U9A C13A G22C C46U	0.16
G2A U9A C23G A26G G35U C37U G40A	0.08

Variant	self-cleavage
G2A C13U C31G	0.13
C3A C8U C10A A14C G44A	0.04
C13G G36U U43A	0.09
A6C G44A C46U	0.04
G17A G35U G36C	0.05
A12G A26G U32C G35U	0.05
G1U A6G U32G C46A	0.02
G5A G7A G30U	0.27
C3A G19U C31A A39G	0.08
A6G C8U A12G G22C A26U C31A G33C	0.01
C31A G33U U38G C42G	0.08
A14G A25C G27U G36C	0.03
U9C A11U A12U U34G A39C G44A	0.02
G22C U28C G33U	0.08
G29U U34A C42G U43G	0.03
A24U G27A U32A	0.08
G21C G30U G36C C37G	0.03
G27U U32C G36C	0.08
C10G A11U G35U	0.02
C3A A6U G19A C23U A25G	0.58
A39G G40U C45A	0.07

Variant	self-cleavage
U9A C37G G44U	0.12
U9G G22A C37U	0.02
C31U G33C U38C	0
C18U A25G A41C	0.01
C23A G27A C42U C46U	0.28
G1A C3U G22U A24G G27C G30A G33C	0.02
C15A C18G C46G	0.04
C13A A14U A41C	0.07
C18A G22C G30A	0.91
A14C C18A G19A A25G C37A G44A	0.01
G21U C31A U34C	0.04
C10U G33C C37U	0.04
G2C U9G U28C G30A G33A	0
C18A U43G G44A C45A	0.05
G2U G17C C18U	0
G2U C8U G21C	0.03
G5U A6U A12G C13A C18U G36U	0.03
A16C A25G U28G	0.04
G1C C8G A11G G27U G30U C31G U34G G36U	0
G17C U20G C45A	0.01
U28C U34C G40U	0.03

Variant	self-cleavage
A6C A14G G29C	0.11
A25C A26U U38G U43G	0.02
G1U C10U G27U G44U	0.07
A4U C10G U20A G27U G29U	0.03
G2U C10A G22U	0.02
A11U G17C U28G A39C C45G C46U	0.01
C13U U28C C45U	0.07
U9G G17C G19C U34A	0.03
C3U U9A U20A G30C U34G C46U	0.15
U9G A11U C13A U28C	0.01
C3U G7U C8A C18A	0.33
A26U G30A G33U	0.06
G7A A12C A14C G44C	0.04
C10G G19A G40A U43C	0.01
C3G A4G U9C C13U G19C C37U	0
C3A U9A G17A C37G	0.45
A4G C23G A25U G27U A39G	0.15
A4G G5U A11U A24U C37G C46A	0.03
A6G A11C A39C G44U	0.02
G5U G36A C37A	0.23
C13A C37U G40C C45U	0.13
